Measured values taken from article PMC4336329 (PLoS ONE, 2015).
Out of some 310,000 compounds screened, about 14,000 (4.5%) showed an effect of 50% or more. Effects have a minus sign here. This is one part of the list.

Target: human ether-à-go-go-related gene (hERG) potassium channel (human, UniProt Q12809)
Experiment: primary screen, population patch clamp on CHO cells stably expressing hERG
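Also: peak tail current of the secondary pulse compared with the same well before compound.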

human ether-à-go-go-related gene (hERG) potassium channel, sequence (Q12809 whole entry, looked up): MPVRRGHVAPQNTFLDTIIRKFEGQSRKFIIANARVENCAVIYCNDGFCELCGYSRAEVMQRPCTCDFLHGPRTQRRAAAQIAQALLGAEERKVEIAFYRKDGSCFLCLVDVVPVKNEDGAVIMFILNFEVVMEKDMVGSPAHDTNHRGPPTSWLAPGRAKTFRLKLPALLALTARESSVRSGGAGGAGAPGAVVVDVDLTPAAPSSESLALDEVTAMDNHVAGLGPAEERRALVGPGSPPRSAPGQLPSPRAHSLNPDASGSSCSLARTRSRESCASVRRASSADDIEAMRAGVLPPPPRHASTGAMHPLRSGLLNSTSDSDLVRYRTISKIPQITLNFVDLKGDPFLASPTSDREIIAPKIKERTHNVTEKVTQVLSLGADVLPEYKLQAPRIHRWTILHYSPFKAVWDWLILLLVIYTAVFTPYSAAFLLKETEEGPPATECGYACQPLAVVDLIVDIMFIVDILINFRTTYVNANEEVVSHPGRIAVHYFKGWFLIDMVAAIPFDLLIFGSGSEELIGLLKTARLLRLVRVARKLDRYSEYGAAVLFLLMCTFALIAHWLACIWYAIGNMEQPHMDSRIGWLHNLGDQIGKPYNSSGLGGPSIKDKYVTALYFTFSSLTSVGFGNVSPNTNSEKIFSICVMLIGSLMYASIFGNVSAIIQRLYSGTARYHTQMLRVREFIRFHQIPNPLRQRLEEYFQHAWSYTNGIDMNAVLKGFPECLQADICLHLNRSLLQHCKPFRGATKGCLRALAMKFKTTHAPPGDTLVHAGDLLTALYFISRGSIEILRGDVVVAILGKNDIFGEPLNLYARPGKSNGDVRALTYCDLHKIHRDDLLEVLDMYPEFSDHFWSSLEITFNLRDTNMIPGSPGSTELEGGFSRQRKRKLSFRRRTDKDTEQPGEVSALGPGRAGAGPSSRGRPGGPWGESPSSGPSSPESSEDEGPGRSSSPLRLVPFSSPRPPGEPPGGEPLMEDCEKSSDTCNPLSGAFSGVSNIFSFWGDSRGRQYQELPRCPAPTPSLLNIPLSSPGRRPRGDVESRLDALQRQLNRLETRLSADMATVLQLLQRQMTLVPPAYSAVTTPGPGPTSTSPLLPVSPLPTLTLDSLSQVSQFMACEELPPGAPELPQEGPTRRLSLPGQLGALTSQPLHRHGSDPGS

| SMILES | hERG current change (%, negative = inhibition) at 10uM |
| --- | --- |
| Cc1ccc(S(=O)(=O)N(CC(=O)N2CCOCC2)C2CCCCC2)cc1 | -23.3% |
| CNC(=O)c1cc(C(=O)c2ccc(F)cc2C(F)(F)F)c[nH]1 | 9.93% |
| Cc1cccc(NC(=O)NC(C)C(c2cccs2)N2CCOCC2)c1 (centres unmarked) | 20.5% |
| O=S(=O)(N/N=C/c1ccccc1F)c1ccccc1 | 3.82% |
| Cn1c(COc2ccccc2)nnc1SCC(=O)NNC(=O)C1CCCCC1 | 8.06% |
| COc1ccc(N2CCN(CCCNC(=O)CN3CCN(Cc4ccccc4C)C3=O)CC2)cc1 | -46.5% |
| Cc1ccc(OCC(=O)NN=C2C3CC4CC(C3)CC2C4)cc1 | -2.32% |
| NS(=O)(=O)c1ccc(CCNC(=O)COC(=O)CCN2C(=O)C3CC=CCC3C2=O)cc1 (centres unmarked) | 0.797% |
| O=C(Nc1cccc(-c2cn3cccnc3n2)c1)c1cccs1 | -20.7% |
| COc1ccc(C2CC(c3ccccc3OC(C)=O)=NN2C(=O)/C=C/c2ccccc2)cc1OC (centres unmarked) | -22.1% |
| O=C(NC1CCCCC1)C(c1ccccn1)N(C(=O)Cc1cccs1)c1ccc(Cl)cc1 (centres unmarked) | -20.3% |
| Cn1cc(/C=C/C(=O)c2ccccc2)c2ccccc21 | 22.7% |
| COC(=O)[C@@H]1CC[C@@](C)(c2ccc(OC)cc2)C1(C)C | 1.76% |
| CC(C)N(Cc1ccccc1)C(=O)COC(=O)/C=C/c1cnc2ccccc2n1 | 3.93% |
| Cc1cc2ccccn2c1C(=O)c1ccc(NN)c([N+](=O)[O-])c1 | -6.4% |
| O=S(=O)(c1ccc(-c2ccccc2)cc1)N1CCCC1 | 10.2% |
| Cn1ccsc1=NC(=O)c1ccc(Cl)c([N+](=O)[O-])c1 | 12.4% |
| O=C(NC1CCCCC1)N(Cc1ccc(F)cc1)Cc1nc2ccccc2c(=O)[nH]1 | 0.0493% |
| Cc1nnc(SCc2cc(=O)[nH]c(=S)[nH]2)s1 | 24.8% |
| Cc1cccc(C)c1NC(=O)CN(C)C(=O)c1cccc(S(=O)(=O)N2CCN(c3ccc(F)cc3)CC2)c1 | -16.8% |
| COc1ccc(-c2csc(NC(=O)c3cccs3)c2C(=O)O)cc1OC | 4.47% |
| O=C(NCc1ccccc1F)C1CCCN(C(=O)Nc2ccccc2)C1 (centres unmarked) | 3.18% |

| SMILES | hERG current change (%, negative = inhibition) at 10uM |
| --- | --- |
| Cc1cc(S(=O)(=O)N2CCOCC2)ccc1OCC(=O)NCC1CCCO1 (centres unmarked) | -0.633% |
| C/C(CC(=O)Nc1ccc2c(c1)OCCO2)=N\NC(=O)c1ccccc1F | 22.4% |
| CCc1ccc(NC(=O)C(C)OC(=O)C2CCN(c3ccc(C(F)(F)F)cn3)CC2)cc1 (centres unmarked) | -16.3% |
| CCNC(=S)N1CCn2cccc2C1c1ccc(F)cc1 (centres unmarked) | -26.8% |
| CCN(CC)C(=O)c1sc(NC(=S)N2CCN(C(=O)C3CCCO3)CC2)c(C(=O)OC)c1C (centres unmarked) | -4.64% |
| CCc1ccc(-c2cc(C)no2)cc1S(=O)(=O)N1CCOc2ccc(C)cc21 | 13.1% |
| CCCCCc1cc(=O)oc2c(C(CCN(CC)CC)c3ccc(N(C)C)cc3)c(OC)cc(OC)c12 (centres unmarked) | -33.6% |
| CCN1CCN(CCNC(=O)c2ccc3c(c2)N(Cc2cccc(Cl)c2)C(=O)c2ccccc2S3=O)CC1 (centres unmarked) | -40.2% |
| O=C(OCC(=O)N1CCOCC1)c1ccc2[nH]c3c(c2c1)CCCC3 | 6.19% |
| COc1ccc(OCC(=O)NCCc2c[nH]c3ccccc23)cc1.O=C(O)C(=O)O | -15.9% |
| O=C(NCc1ccco1)c1ccc(COc2ccccc2[N+](=O)[O-])o1 | -21.6% |
| COc1ccc(-c2nn(-c3ccccc3)cc2C(=O)N/N=C/c2ccc([N+](=O)[O-])o2)cc1 | -38.2% |
| CCSc1nnc2n1C(C)(C)Cc1ccccc1-2 | 0.0135% |
| CC1(C)CC2CC(C)(CN2C(=S)Nc2ccccc2)C1 (centres unmarked) | 2.9% |
| CCN(CC(=O)Nc1ccccc1OC)CC(=O)Nc1ccccc1-c1ccccc1 | -5.14% |
| COc1ccc(NC2CCCN(C(=O)c3oc(C)cc3C)C2)cc1OC (centres unmarked) | 16.2% |
| CC(=O)Nc1nc(-c2ccc3c(c2)CCN3C(=O)C2CC2)c(C)s1 | -1.04% |
| CCc1nccn1CCC(=O)N1CCCC(Nc2ccc(F)cc2)C1 (centres unmarked) | -15.8% |
| CCC1CCCCN1C(=O)c1nn2cccnc2c1Cl (centres unmarked) | -1.22% |
| O=C(CCCn1c(SCC(=O)NCC2CCCO2)nc2ccccc2c1=O)NCC1CCCO1 (centres unmarked) | -5.18% |
| O=C(NC(=S)NNC(=O)c1ccccc1F)c1cccnc1 | 19.7% |
| COc1cccc(-n2c(N)cc(=O)nc2SCC(=O)Nc2cc(C)on2)c1 | 18.6% |
